40 compounds from the antibiotic and cytotoxicity screens of Wong et al. (2023) can be followed below.

The list shows a part of the results.

This experiment has as its system HSkMC (human skeletal muscle cells). The experiment in a line: cytotoxicity call (relative viability < 0.9). Conditions: 10 µM.
Consider `COc1ccc(S(=O)(=O)N2C[C@@H](O)COC[C@H]3O[C@H](CC(=O)N[C@H]4CCN(Cc5ccccc5)C4)CC[C@@H]32)cc1`, for which the cytotoxicity call was “inactive”.
The entry for `C[C@H](CO)N1C[C@H](C)[C@H](CN(C)C(=O)Nc2ccc(F)cc2)Oc2ccc(NC(=O)Cn3cnnn3)cc2CC1=O` is “inactive”.
The entry for `CO[C@H]1CN(C)C(=O)c2cc(NC(=O)CC(F)(F)F)ccc2OC[C@H](C)N(S(=O)(=O)c2cn(C)cn2)C[C@@H]1C` is “inactive”; for `COc1ccc(NC(=O)Nc2ccc3c(c2)C(=O)N([C@H](C)CO)C[C@@H](C)[C@H](CN(C)Cc2ccc4c(c2)OCO4)OCCCC[C@H](C)O3)cc1` it is “inactive”; for `C[C@H]1CN([C@@H](C)CO)S(=O)(=O)c2ccc(C#CC3CC3)cc2O[C@@H]1CN(C)Cc1cccc(F)c1` it is “inactive”.
The entry for `C[C@H](CO)N1C[C@H](C)[C@H](CN(C)C(=O)CN(C)C)Oc2cc(C#CC(C)(C)O)ccc2S1(=O)=O` is “inactive”; for `CN(C)CCc1c[nH]c2ccc(CC3COC(=O)N3)cc12` (stereo not given) it is “inactive”; for `Cc1noc(C)c1S(=O)(=O)Nc1ccc2c(c1)C(=O)N([C@H](C)CO)C[C@@H](C)[C@@H](CN(C)CC1CCCCC1)OCCCC[C@@H](C)O2` it is “inactive”.
Take `COc1ccc(S(=O)(=O)N(C)C[C@@H]2OCCCC[C@H](C)Oc3ccc(NC(=O)Nc4ccc(F)cc4)cc3C(=O)N([C@@H](C)CO)C[C@H]2C)cc1`: the cytotoxicity call is “inactive”.
On to `O=c1[nH]c(=O)c2cc(Br)ccc2[nH]1`, for which the cytotoxicity call was “inactive”.
The entry for `C[C@@H]1CN([C@H](C)CO)C(=O)c2cc(NS(C)(=O)=O)ccc2O[C@@H](C)CCCCO[C@H]1CN(C)C(=O)Nc1ccc(C(F)(F)F)cc1` is “inactive”; for `COc1ccc([Si](C)(C)[C@H]2[C@H](CCO)O[C@@]3(C(=O)N(Cc4ccc(N(C=O)c5ccccc5)cc4)c4ccccc43)[C@@H]2C)cc1` it is “inactive”; for `C[C@@H]1CN([C@@H](C)CO)C(=O)c2cc(C3=CCCC3)cnc2O[C@H]1CN(C)S(=O)(=O)c1cn(C)cn1` it is “inactive”.
The result for `C[C@@H]1CN([C@@H](C)CO)C(=O)c2cc(NC(=O)Cc3cn(C)c4ccccc34)ccc2O[C@@H]1CN(C)CC1CCCCC1` reads “inactive”; that for `CCS(=O)(=O)Nc1ccc2c(c1)C(=O)N(C)C[C@@H](OC)[C@H](C)CN(Cc1nccs1)[C@H](C)CO2`, “inactive”; that for `CCNC(=O)C[C@@H]1CC[C@@H](NC(=O)C2CC2)[C@@H](CO)O1`, “inactive”.
On to `CC(C)(C)[S@@](=O)N1Cc2cc(C(=O)NCc3ccc4c(c3)OCO4)nc(-c3cccc(-c4cccnc4)c3)c2[C@H]1CCO`, for which the cytotoxicity call is “inactive”.
The entry for `Cc1noc(C)c1S(=O)(=O)N(C)C[C@@H]1Oc2ccc(NC(=O)Nc3ccc4c(c3)OCO4)cc2CC(=O)N([C@H](C)CO)C[C@@H]1C` is “inactive”; for `C[C@@H]1CN([C@H](C)CO)C(=O)c2c(c3ccccc3n2C)-c2ccccc2CO[C@H]1CN(C)Cc1ccc(O)cc1` it is “inactive”; for `Cc1noc(C)c1NC(=O)N[C@H]1C=C[C@@H](CC(=O)N2CCN(C)CC2)O[C@H]1CO` it is “inactive”.
As for `C[C@@H]1CN([C@@H](C)CO)C(=O)c2cc(NC(=O)CCC(F)(F)F)ccc2O[C@@H](C)CCCCO[C@@H]1CN(C)C(=O)CCC(F)(F)F`, the cytotoxicity call was “inactive”.
The result for `NCC[C@@H]1CC[C@@H](NC(=O)C2CC2)[C@H](CO)O1` reads “inactive”.
Regarding `C[C@@H]1CCCCO[C@H](CN(C)C(=O)NC2CCCCC2)[C@H](C)CN([C@H](C)CO)C(=O)c2cc(NC(=O)Cc3ccccc3)ccc2O1`, the cytotoxicity call was “inactive”.
The result for `O=C(Nc1ccc(C(=O)Nc2ccc(C(=O)Nc3ccc(S(=O)(=O)O)c4cc(S(=O)(=O)O)cc(S(=O)(=O)O)c34)cc2)cc1)Nc1ccc(C(=O)Nc2ccc(C(=O)Nc3ccc(S(=O)(=O)O)c4cc(S(=O)(=O)O)cc(S(=O)(=O)O)c34)cc2)cc1` reads “inactive”.
Take `NC1CCN(C(=O)c2c[nH]c3ccccc23)CC1`: the cytotoxicity call was “inactive”.
The entry for `N[C@@H]1CC[C@@H](CCn2cc(C3(O)CCCC3)nn2)O[C@H]1CO` is “inactive”; for `NC1CONC1=O` (stereo not given) it is “inactive”.
The result for `C[C@@H]1CN([C@@H](C)CO)S(=O)(=O)c2ccc(Br)cc2O[C@@H]1CN(C)C(=O)NC1CCCCC1` reads “inactive”; that for `NC(Cc1c[nH]c2ccccc12)C(=O)O` (stereo not given), “inactive”.
Consider `Cc1ccc(S(=O)(=O)Nc2ccc3c(c2)C(=O)N([C@@H](C)CO)C[C@@H](C)[C@H](CN(C)S(=O)(=O)c2ccc(Cl)cc2)OCCCC[C@@H](C)O3)cc1`, for which the cytotoxicity call was “inactive”.
The entry for `COc1ccc(S(=O)(=O)Nc2cccc3c2O[C@H](CN(C)S(=O)(=O)c2c(C)noc2C)[C@@H](C)CN([C@H](C)CO)C3=O)cc1` is “inactive”; for `C[C@H]1CN([C@@H](C)CO)C(=O)c2cc(C#CCN(C)C)cnc2O[C@@H]1CN(C)Cc1ccc(C(=O)O)cc1` it is “inactive”.
Regarding `NC(=O)C1(N2CCCCC2)CCN(CCCC(=O)c2ccc(F)cc2)CC1`, the cytotoxicity call is “inactive”.
The result for `C[C@H]1CN([C@@H](C)CO)S(=O)(=O)c2ccc(-c3cncnc3)cc2O[C@@H]1CN(C)C(=O)c1cccc(F)c1` reads “inactive”; that for `NCC[C@H]1CC[C@H](NC(=O)Cc2ccncc2)[C@H](CO)O1`, “inactive”; that for `COCC(=O)N1C[C@@H](C)[C@@H](OC)CN(C)C(=O)c2ccc(NC(=O)c3ccc(OC)cc3)cc2OC[C@H]1C`, “inactive”.
The entry for `CC(C(=O)O)c1ccc(-c2ccccc2)c(F)c1` (stereo not given) is “inactive”; for `C[C@@H]1CN([C@H](C)CO)C(=O)c2cc(NC(=O)c3ccccc3)ccc2O[C@@H](C)CCCCO[C@H]1CN(C)C(=O)Cc1ccccc1` it is “inactive”.
`Cc1ccc(S(=O)(=O)N(C)C[C@@H]2Oc3ccc(NS(=O)(=O)c4ccccc4)cc3C(=O)N([C@H](C)CO)C[C@H]2C)cc1`: the cytotoxicity call was “inactive”.
The entry for `O=C1N[C@@H](Cc2ccccc2)C(=O)N2[C@@H]1C[C@@H](C(=O)NCc1ccc(F)cc1)[C@H]2c1cccc(OCCO)c1` is “inactive”.
